From patent US8946446B2, “Pyrrolo sulfonamide compounds for modulation of orphan nuclear receptor RAR-related orphan receptor-γ (ROR-γ, NR1F3) activity and for the treatment of chronic inflammatory and autoimmune diseases” (Phenex Pharmaceuticals AG, priority 2011, dated 2015)
Where two headings read alike, the source gives them in different places. Some of these results come from one statement about several compounds together.

Biological target: T1, RORγ (UniProt P51449)
T1 construct: hRORg-LBD|aa259-518|NP_005051.2; hRORgt|aa1-497|NP_001001523 (RORg, t isoform, 497aa); mRORg-LBD|aa264-516|NP_035411
T1 sequence (P51449 1-518): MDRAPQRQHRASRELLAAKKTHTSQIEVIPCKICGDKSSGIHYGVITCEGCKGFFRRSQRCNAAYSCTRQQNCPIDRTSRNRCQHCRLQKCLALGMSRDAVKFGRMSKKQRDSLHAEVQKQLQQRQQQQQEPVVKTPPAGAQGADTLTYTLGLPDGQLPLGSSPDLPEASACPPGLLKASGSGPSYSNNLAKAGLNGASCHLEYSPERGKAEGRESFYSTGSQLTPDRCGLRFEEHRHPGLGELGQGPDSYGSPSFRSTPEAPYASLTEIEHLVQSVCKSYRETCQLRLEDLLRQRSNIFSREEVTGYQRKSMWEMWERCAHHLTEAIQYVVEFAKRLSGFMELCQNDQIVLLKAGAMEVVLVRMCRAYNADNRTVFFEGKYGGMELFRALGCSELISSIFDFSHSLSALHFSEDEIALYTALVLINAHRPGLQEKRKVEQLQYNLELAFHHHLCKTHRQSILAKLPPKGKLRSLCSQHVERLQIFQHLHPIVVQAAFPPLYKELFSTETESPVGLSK
Experiment: RORγ Gal4 Reporter Gene Assay
Format: cell-based
Conditions: 293T cells

[1] = firefly (FF) luciferase, read-out: RORγ activity in the Gal4 reporter gene assay, firefly (IC50 FF), Group
[2] = renilla normalised (RENnorm) luciferase, read-out: RORγ activity in the Gal4 reporter gene assay, renilla normalised (IC50 RENnorm), Group

Compound `Cc1c(S(=O)(=O)N2CCOCC2)cc(-c2cc(C(C)(C)C)cc(C(C)(C)C)c2)n1CC1CCCCC1` [Example 44, 4-((1-(Cyclohexylmethyl)-5-(3,5-di-tert-butylphenyl)-2-methyl-1H-pyrrol-3-yl)sulfonyl)morpholine] has an IC50 [1] of under 500 nM and an IC50 [2] of under 500 nM.
Work on `Cc1c(S(N)(=O)=O)cc(-c2cc(C(C)(C)C)cc(C(C)(C)C#N)c2)n1CC1CCCCC1` [Example 45, 5-(3-(tert-Butyl)-5-(2-cyanopropan-2-yl)phenyl)-1-(cyclohexylmethyl)-2-methyl-1H-pyrrole-3-sulfonamide] yielded an IC50 [1] of under 500 nM and an IC50 [2] of under 500 nM.
`CC(=O)NCC(C)(C)c1cc(-c2cc(S(N)(=O)=O)c(C)n2CC2CCCCC2)cc(C(C)(C)C)c1` [Example 49, N-(2-(3-(tert-Butyl)-5-(1-(cyclohexylmethyl)-5-methyl-4-sulfamoyl-1H-pyrrol-2-yl)phenyl)-2-methylpropyl)acetamide] gave an IC50 [1] of 500 to 2000 nM and an IC50 [2] of 500 to 2000 nM.
In the case of `Cc1c(S(N)(=O)=O)cc(-c2cn(S(=O)(=O)c3ccccc3Cl)c3ccccc23)n1CC1CCCCC1` [Example 53, 5-(1-((2-Chlorophenyl)sulfonyl)-1H-indol-3-yl)-1-(cyclohexylmethyl)-2-methyl-1H-pyrrole-3-sulfonamide], the IC50 [1] is reported as under 500 nM and the IC50 [2] is reported as under 500 nM.
